In US5763404A, “Methods for using LHRH antagonists with low histamine release” (priority 1995, dated 1998):
Part of at least one peptide drawing is inferred or uncertain, most often the ends. Starred links: 1 amine or outer side, 2 acyl side, 3 side chain; linkers in the order of their positions; H or OH if unused. Non-standard residues stand in square brackets, D forms with d. Residues, ends and D or L forms follow the SMILES beside them. *: point of attachment. dAla(cis-4-NHCOPyz-cHex) = N[C@H](C[C@H]1CC[C@@H](NC(=O)c2cnccn2)CC1)C(=O)O; X4 = O=C(N[C@H]1CC[C@@H](C[C@@H](N[*:1])C(=O)[*:2])CC1)c1cccnc1; X3 = O=C(N[C@H]1CC[C@H](C[C@@H](N[*:1])C(=O)[*:2])CC1)c1cnccn1; X7 = O=C(N[C@H]1CC[C@H](C[C@@H](N[*:1])C(=O)[*:2])CC1)c1cccnc1; dPhe(4-Cl) = N[C@H](Cc1ccc(Cl)cc1)C(=O)O; d2Nal = N[C@H](Cc1ccc2ccccc2c1)C(=O)O; Lys(iPr) = CC(C)NCCCC[C@H](N)C(=O)O; Orn(iPr) = CC(C)NCCC[C@H](N)C(=O)O; aIle = CC[C@@H](C)[C@H](N)C(=O)O; d3Pal = N[C@H](Cc1cccnc1)C(=O)O; Nicotinoyl = O=C(c1cccnc1)*; Picolinoyl = O=C(c1ccccn1)*; Nle = CCCC[C@H](N)C(=O)O; Nva = CCC[C@H](N)C(=O)O; Abu = CC[C@H](N)C(=O)O

Tested on: 4-day cycling rats
Assay: antiovulatory activity (AOA) in rats, single sc injection
Format: in vivo, rat
Conditions: for AOA %/μg 1.0: 1.0 μg sc in corn oil; for AOA %/μg 0.5: 0.5 μg sc in corn oil; for AOA %/μg 0.25: 0.25 μg sc in corn oil

| SMILES | AOA %/μg 1.0 | AOA %/μg 0.5 | also measured |
| --- | --- | --- | --- |
| CC(=O)N[C@H](Cc1ccc2ccccc2c1)C(=O)N[C@H](Cc1ccc(Cl)cc1)C(=O)N[C@H](Cc1cccnc1)C(=O)N[C@@H](CO)C(=O)N[C@@H](CCCCNC(=O)c1ccccn1)C(=O)N[C@H](CCCCNC(=O)c1ccccn1)C(=O)N[C@@H](CC(C)C)C(=O)N[C@@H](CCCCNC(C)C)C(=O)N1CCC[C@H]1C(=O)N[C@H](C)C(N)=O (Ac-[d2Nal][dPhe(4-Cl)][d3Pal]SK(Picolinoyl)[dK](Picolinoyl)L[Lys(iPr)]P[dA]-NH2) | – | – | prevention of ovulation (in words) (rat, in vivo): twice as effective as the above peptide |
| CC(=O)N[C@H](Cc1ccc2ccccc2c1)C(=O)N[C@H](Cc1ccc(Cl)cc1)C(=O)N[C@H](Cc1cccnc1)C(=O)N[C@@H](CO)C(=O)N[C@@H](CCCCNC(=O)c1cccnc1)C(=O)N[C@H](C[C@H]1CC[C@H](NC(=O)c2cccnc2)CC1)C(=O)N[C@@H](CC(C)C)C(=O)N[C@@H](CCCCNC(C)C)C(=O)N1CCC[C@H]1C(=O)N[C@H](C)C(N)=O [IBR 25647] (Ac-[d2Nal][dPhe(4-Cl)][d3Pal]SK(Nicotinoyl)[X7]L[Lys(iPr)]P[dA]-NH2) | 70% | – | – |
| CC(=O)N[C@H](Cc1ccc2ccccc2c1)C(=O)N[C@H](Cc1ccc(Cl)cc1)C(=O)N[C@H](Cc1cccnc1)C(=O)N[C@@H](CO)C(=O)N[C@@H](CCCCNC(=O)c1cccnc1)C(=O)N[C@H](C[C@H]1CC[C@@H](NC(=O)c2cccnc2)CC1)C(=O)N[C@@H](CC(C)C)C(=O)N[C@@H](CCCCNC(C)C)C(=O)N1CCC[C@H]1C(=O)N[C@H](C)C(N)=O [IBR 25648] (Ac-[d2Nal][dPhe(4-Cl)][d3Pal]SK(Nicotinoyl)[X4]L[Lys(iPr)]P[dA]-NH2) | 100% | 50% | – |
| CC(=O)N[C@H](Cc1ccc2ccccc2c1)C(=O)N[C@H](Cc1ccc(Cl)cc1)C(=O)N[C@H](Cc1cccnc1)C(=O)N[C@@H](CO)C(=O)N[C@@H](CCCCNC(=O)c1cccnc1)C(=O)N[C@H](C[C@H]1CC[C@H](NC(=O)c2cnccn2)CC1)C(=O)N[C@@H](CC(C)C)C(=O)N[C@@H](CCCCNC(C)C)C(=O)N1CCC[C@H]1C(=O)N[C@H](C)C(N)=O [IBR 25805] (Ac-[d2Nal][dPhe(4-Cl)][d3Pal]SK(Nicotinoyl)[X3]L[Lys(iPr)]P[dA]-NH2) | 88% | 67% | – |
| CC(=O)N[C@H](Cc1ccc2ccccc2c1)C(=O)N[C@H](Cc1ccc(Cl)cc1)C(=O)N[C@H](Cc1cccnc1)C(=O)N[C@@H](CO)C(=O)N[C@@H](CCCCNC(=O)c1cccnc1)C(=O)N[C@H](C[C@H]1CC[C@@H](NC(=O)c2cnccn2)CC1)C(=O)N[C@@H](CC(C)C)C(=O)N[C@@H](CCCCNC(C)C)C(=O)N1CCC[C@H]1C(=O)N[C@H](C)C(N)=O [IBR 25806] (Ac-[d2Nal][dPhe(4-Cl)][d3Pal]SK(Nicotinoyl)[dAla(cis-4-NHCOPyz-cHex)]L[Lys(iPr)]P[dA]-NH2) | 25% | – | – |
| CC(=O)N[C@H](Cc1ccc2ccccc2c1)C(=O)N[C@H](Cc1ccc(Cl)cc1)C(=O)N[C@H](Cc1cccnc1)C(=O)N[C@@H](CO)C(=O)N[C@@H](CCCCNC(=O)c1ccccn1)C(=O)N[C@H](CCCCNC(=O)c1ccccn1)C(=O)N[C@@H](Cc1c[nH]c2ccccc12)C(=O)N[C@@H](CCCCNC(C)C)C(=O)N1CCC[C@H]1C(=O)N[C@H](C)C(N)=O [IBR 25935] (Ac-[d2Nal][dPhe(4-Cl)][d3Pal]SK(Picolinoyl)[dK](Picolinoyl)W[Lys(iPr)]P[dA]-NH2) | – | 10% | – |
| CCCC[C@H](NC(=O)[C@@H](CCCCNC(=O)c1ccccn1)NC(=O)[C@H](CCCCNC(=O)c1ccccn1)NC(=O)[C@H](CO)NC(=O)[C@@H](Cc1cccnc1)NC(=O)[C@@H](Cc1ccc(Cl)cc1)NC(=O)[C@@H](Cc1ccc2ccccc2c1)NC(C)=O)C(=O)N[C@@H](CCCCNC(C)C)C(=O)N1CCC[C@H]1C(=O)N[C@H](C)C(N)=O [IBR 25988] (Ac-[d2Nal][dPhe(4-Cl)][d3Pal]SK(Picolinoyl)[dK](Picolinoyl)[Nle][Lys(iPr)]P[dA]-NH2) | – | 77% | AOA %/μg 0.25: 20% |
| CCC[C@H](NC(=O)[C@@H](CCCCNC(=O)c1ccccn1)NC(=O)[C@H](CCCCNC(=O)c1ccccn1)NC(=O)[C@H](CO)NC(=O)[C@@H](Cc1cccnc1)NC(=O)[C@@H](Cc1ccc(Cl)cc1)NC(=O)[C@@H](Cc1ccc2ccccc2c1)NC(C)=O)C(=O)N[C@@H](CCCCNC(C)C)C(=O)N1CCC[C@H]1C(=O)N[C@H](C)C(N)=O [IBR 25989] (Ac-[d2Nal][dPhe(4-Cl)][d3Pal]SK(Picolinoyl)[dK](Picolinoyl)[Nva][Lys(iPr)]P[dA]-NH2) | – | 100% | AOA %/μg 0.25: 10% |
| CC[C@H](C)[C@H](NC(=O)[C@@H](CCCCNC(=O)c1ccccn1)NC(=O)[C@H](CCCCNC(=O)c1ccccn1)NC(=O)[C@H](CO)NC(=O)[C@@H](Cc1cccnc1)NC(=O)[C@@H](Cc1ccc(Cl)cc1)NC(=O)[C@@H](Cc1ccc2ccccc2c1)NC(C)=O)C(=O)N[C@@H](CCCCNC(C)C)C(=O)N1CCC[C@H]1C(=O)N[C@H](C)C(N)=O [IBR 26020] (Ac-[d2Nal][dPhe(4-Cl)][d3Pal]SK(Picolinoyl)[dK](Picolinoyl)I[Lys(iPr)]P[dA]-NH2) | – | – | AOA %/μg 0.25: 0% |
| CC(=O)N[C@H](Cc1ccc2ccccc2c1)C(=O)N[C@H](Cc1ccc(Cl)cc1)C(=O)N[C@H](Cc1cccnc1)C(=O)N[C@@H](CO)C(=O)N[C@@H](CCCCNC(=O)c1ccccn1)C(=O)N[C@H](CCCCNC(=O)c1ccccn1)C(=O)N[C@@H](C)C(=O)N[C@@H](CCCCNC(C)C)C(=O)N1CCC[C@H]1C(=O)N[C@H](C)C(N)=O [IBR 26099] (Ac-[d2Nal][dPhe(4-Cl)][d3Pal]SK(Picolinoyl)[dK](Picolinoyl)A[Lys(iPr)]P[dA]-NH2) | – | 60% | – |
| CC(=O)N[C@H](Cc1ccc2ccccc2c1)C(=O)N[C@H](Cc1ccc(Cl)cc1)C(=O)N[C@H](Cc1cccnc1)C(=O)N[C@@H](CO)C(=O)N[C@@H](CCCCNC(=O)c1ccccn1)C(=O)N[C@H](CCCCNC(=O)c1ccccn1)C(=O)N[C@H](C(=O)N[C@@H](CCCNC(C)C)C(=O)N1CCC[C@H]1C(=O)N[C@H](C)C(N)=O)C(C)C [IBR 26118] (Ac-[d2Nal][dPhe(4-Cl)][d3Pal]SK(Picolinoyl)[dK](Picolinoyl)V[Orn(iPr)]P[dA]-NH2) | – | 57% | – |
| CC[C@@H](C)[C@H](NC(=O)[C@@H](CCCCNC(=O)c1ccccn1)NC(=O)[C@H](CCCCNC(=O)c1ccccn1)NC(=O)[C@H](CO)NC(=O)[C@@H](Cc1cccnc1)NC(=O)[C@@H](Cc1ccc(Cl)cc1)NC(=O)[C@@H](Cc1ccc2ccccc2c1)NC(C)=O)C(=O)N[C@@H](CCCNC(C)C)C(=O)N1CCC[C@H]1C(=O)N[C@H](C)C(N)=O [IBR 26178] (Ac-[d2Nal][dPhe(4-Cl)][d3Pal]SK(Picolinoyl)[dK](Picolinoyl)[aIle][Orn(iPr)]P[dA]-NH2) | – | 82% | – |
| CC[C@H](NC(=O)[C@@H](CCCCNC(=O)c1ccccn1)NC(=O)[C@H](CCCCNC(=O)c1ccccn1)NC(=O)[C@H](CO)NC(=O)[C@@H](Cc1cccnc1)NC(=O)[C@@H](Cc1ccc(Cl)cc1)NC(=O)[C@@H](Cc1ccc2ccccc2c1)NC(C)=O)C(=O)N[C@@H](CCCNC(C)C)C(=O)N1CCC[C@H]1C(=O)N[C@H](C)C(N)=O [IBR 26179] (Ac-[d2Nal][dPhe(4-Cl)][d3Pal]SK(Picolinoyl)[dK](Picolinoyl)[Abu][Orn(iPr)]P[dA]-NH2) | – | 80% | – |
